According to PubChem BioAssay AID588342 (National Center for Advancing Translational Sciences (NCATS), 2011):
“And” between values parts separate entries of the source, which are not always exact repeats. Identical values can stand only once. In all, about 360,000 compounds went through this assay and about 25,000 (6.9%) were called active. Inconclusive means that the source gave no clear call. Such entries were picked first, then a sample of the others. The call rests on the fitted dose curve; in most records, active means well fitted inhibition curve with a large enough effect; inconclusive means small, poorly fitted or top-dose-only effect; inactive means flat fitted curve, though single readings scatter. Potencies of inconclusive entries are doubtful fits and often do not repeat.
Further: nearly all actives have a fitted effect of over 55% in size.
Potency means the concentration at half of the fitted maximal effect; tags describe the fitted curve by direction and shape.
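Wherever activity change, negative = inhibition is given: plate controls were vehicle for no effect and reference inhibitor for full effect.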

These molecules were tested against Luciferin 4-monooxygenase (Photinus pyralis) (UniProt P08659) (assay: qHTS profiling assay for firefly luciferase inhibitor/activator using purifed enzyme and Km concentrations of substrates (counterscreen for miR-21 project)). Conditions: purified FLuc, luminescence inhibition; series mostly up to 57.5 µM; activity change, negative = inhibition: at the top concentration.
UniProt P08659, sequence (P08659 whole entry, looked up): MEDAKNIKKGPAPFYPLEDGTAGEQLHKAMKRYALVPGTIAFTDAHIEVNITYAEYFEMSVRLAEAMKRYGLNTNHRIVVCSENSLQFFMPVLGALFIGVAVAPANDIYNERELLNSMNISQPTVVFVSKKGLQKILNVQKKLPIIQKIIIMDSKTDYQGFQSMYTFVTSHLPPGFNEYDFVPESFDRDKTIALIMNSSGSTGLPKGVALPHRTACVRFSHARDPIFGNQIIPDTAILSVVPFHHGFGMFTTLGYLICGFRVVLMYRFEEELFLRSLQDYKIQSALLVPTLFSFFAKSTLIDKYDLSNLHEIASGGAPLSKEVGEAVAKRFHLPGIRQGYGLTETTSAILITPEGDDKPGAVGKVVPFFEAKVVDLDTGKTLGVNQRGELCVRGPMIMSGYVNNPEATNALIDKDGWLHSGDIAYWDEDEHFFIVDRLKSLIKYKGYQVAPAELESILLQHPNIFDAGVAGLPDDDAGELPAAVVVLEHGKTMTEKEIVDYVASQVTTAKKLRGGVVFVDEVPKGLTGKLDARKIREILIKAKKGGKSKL
Procedure, shortened: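 Biochemical qHTS of compounds, final roughly 60 µM downward over six points, against 10 nM purified firefly luciferase using Km concentrations of substrates (10 uM D-luciferin, 10 uM ATP) in Tris acetate pH 7.5 buffer; luminescence output.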
In the case of O=C1NC(CCc2ccccc2)C(=O)N1CCOc1ccccc1 (stereo not drawn), the “activity change, negative = inhibition” value is reported as inactive: 5.29%. CNC(=O)c1ccsc1NC(=O)c1ccc2c(c1)CCCC2 was tested, and the Potency was active: 0.953 µM. CCCCc1ccc(NC(=S)N2CCCC(C)C2)cc1 (stereo not drawn) was tested, and the Potency was active: 13.5 µM. O=C(CCN1C(=O)S/C(=C\c2ccccc2)C1=O)Nc1ccc(S(=O)(=O)Nc2nccs2)cc1 was tested, and the Potency was inconclusive: 26.9 µM [inhibitor, partial curve, poor fit]. In the case of Cc1[nH]c2ccccc2c1/C=N/Nc1ccccn1, the Potency is reported as active: 23.9 µM. With C=CCNC(=S)N/N=C/c1ccc(C)cc1C the Potency was inconclusive: 8.49 µM [inhibitor, partial curve]. Nc1c(C(=O)c2cccs2)sc2nsc(SCCN3CCCCC3)c12 was tested, and the Potency was active: 5.36 µM. In the case of CC(C)(C)NC(=O)CSc1nc2ccc(NC(=O)CSc3nnnn3Cc3ccccc3)cc2s1, the Potency is reported as inconclusive: 26.9 µM [inhibitor, partial curve, poor fit]. CCn1ccnc1CN(C)C(=O)c1cc(COc2ccc(OC)c3ccccc23)on1 was tested, and the “activity change, negative = inhibition” value was inactive: 3.61%. In the case of c1ccc(-c2nc(-c3ccncc3)n[nH]2)nc1, the Potency is reported as inconclusive: 23.9 µM [inhibitor, partial curve, poor fit]. Nc1nnc(SCc2cn3cc(Cl)ccc3n2)s1 was tested, and the Potency was inconclusive: 37.9 µM [inhibitor, single point]. With Cc1ccc2nccc(C(=O)N3CCCC(Nc4ccc(C)c(C)c4)C3)c2c1 (stereo not drawn) the “activity change, negative = inhibition” value was inactive: 1.02%. With Cc1cc(C(=O)N/N=C2\CCCC(=O)C2)c(C)n1-c1ccccc1 the Potency was inconclusive: 26.9 µM [inhibitor, single point]. With O=C(Cn1c(=O)c2ccccc2n(CC(=O)Nc2ccc(F)cc2F)c1=O)NCCc1ccccc1 the “activity change, negative = inhibition” value was inactive: -6.62%. In the case of COC(=O)c1sc(NC(=O)c2oc3ccccc3c2C)nc1C, the Potency is reported as inconclusive: 4.78 µM [inhibitor, partial curve]. With Nc1nonc1C(=O)N/N=C/c1cc(Br)ccc1O the Potency was inconclusive: 30.1 µM [inhibitor, single point]. With COc1ccc(NC(=O)CCSc2nc(-c3ccco3)cc(C(F)(F)F)n2)cc1 the “activity change, negative = inhibition” value was inactive: 0.458%. With Cc1ccc(C)c(Nc2ncnc3onc(C)c23)c1 the “activity change, negative = inhibition” value was inactive: -5.05%. Cc1ccc(C(=O)O/N=C(\N)c2ccc(Br)cc2)cc1C was tested, and the Potency was inconclusive: 9.53 µM [inhibitor, partial curve]. With CCCOc1ccc(/C=C/C(=O)N2CCOCC2)cc1 the Potency was active: 15.1 µM. In the case of Cn1c(N=NC(=O)c2ccccc2)c(O)c2ccccc21, the Potency is reported as active: 0.849 µM. In the case of Cc1nnc(N2CCCC(C(=O)NCc3ccccc3F)C2)c2nn(-c3ccc(Cl)cc3)c(C)c12 (stereo not drawn), the “activity change, negative = inhibition” value is reported as inactive: -1.85%. In the case of CC(=O)N1CCN(S(=O)(=O)c2cccc(C(=O)Nc3nc4c(s3)CCCC4)c2)CC1, the Potency is reported as inconclusive: 30.1 µM [inhibitor, single point]. With Cc1ccc(-c2nc3cccnc3s2)cc1NS(=O)(=O)c1ccc2c(c1)OCCO2 the “activity change, negative = inhibition” value was inactive: -12.8%. In the case of COc1ccc(NS(=O)(=O)c2cc(NC(=O)Cc3c(F)cccc3Cl)ccc2OC)cc1, the Potency is reported as inconclusive: 26.9 µM [inhibitor, partial curve, poor fit]. COc1cccc(-c2noc(-c3cccnc3)n2)c1 was tested, and the Potency was active: 5.36 µM. Cc1ccc(N(CC(=O)NCc2ccco2)C(=O)CCC(=O)Nc2nccs2)c(C)c1 was tested, and the “activity change, negative = inhibition” value was inactive: -1.42%. Cc1ccc(-n2nnc(-c3nsc(NC(=O)c4cccc(Cl)c4)n3)c2C)cc1C was tested, and the “activity change, negative = inhibition” value was inactive: 2.56%. With CCCC(=O)Nc1ccc(Cl)c(NC(=O)c2cccc(OC)c2)c1 the “activity change, negative = inhibition” value was inactive: 0.72%. For O=C(CSc1n[nH]c(-c2ccccc2)n1)NCCCc1ccccc1, the Potency was inconclusive: 13.5 µM [inhibitor, partial curve, poor fit]. In the case of COc1ccc(CN=C(C)c2c(C(F)(F)F)[nH]n(-c3nc4ccccc4s3)c2=O)cc1, the Potency is reported as active: 6.75 µM. For Nc1cccc(C(=O)Nc2ccccc2Cl)c1, the Potency was inconclusive: 37.9 µM [inhibitor, partial curve, poor fit]. With COc1cc(Cl)c(C)cc1NC(=O)c1ccc2c(SCC(=O)O)c3c(nc2c1)CCCC3 the Potency was inconclusive: 19 µM [inhibitor, partial curve] and inconclusive: 15.1 µM [inhibitor, partial curve]. In the case of Cc1csc(=O)n1CC(=O)Nc1ccc(Cl)cc1F, the “activity change, negative = inhibition” value is reported as inactive: 4.28%. In the case of CC(=O)Oc1ccc(C)cc1-n1nc2ccccc2n1, the Potency is reported as active: 21.3 µM. In the case of Cc1ccc(NC(=S)Nc2cccc3cnccc23)cc1C, the Potency is reported as inconclusive: 26.9 µM [inhibitor, single point]. In the case of S=c1[nH]nc(-c2ccc3ncccc3c2)n1-c1ccc2c(c1)OCCO2, the Potency is reported as inconclusive: 23.9 µM [inhibitor, partial curve, poor fit]. With O=C(Nc1nccs1)c1ccc(S(=O)(=O)c2ccccc2)cc1 the “activity change, negative = inhibition” value was inactive: 5.86%. CN1CCc2nc3sc(C(=O)NCc4ccccc4)c(N)c3cc2C1 was tested, and the Potency was inconclusive: 37.9 µM [inhibitor, single point]. In the case of CN1CCc2nc(NC(=O)COc3ccc4ccccc4c3)sc2C1, the “activity change, negative = inhibition” value is reported as inactive: 1.64%. For Cc1cc(C)n(C(=O)c2cc([N+](=O)[O-])cc([N+](=O)[O-])c2)n1, the “activity change, negative = inhibition” value was inactive: -0.919%. For CCOC(=O)c1ccc(NC(=O)c2ccc3c(c2)C(=O)N(CC2CCCO2)C3=O)cc1 (stereo not drawn), the “activity change, negative = inhibition” value was inactive: -11.1%. For Cc1[nH]n(-c2ccccc2)c(=S)c1C=Nc1cccc([N+](=O)[O-])c1, the Potency was inconclusive: 12 µM [inhibitor, partial curve]. In the case of Cc1[nH]n(-c2ncc(-c3ccccc3)s2)c(=O)c1C(c1ccc(Cl)cc1)C(C#N)C#N (stereo not drawn), the Potency is reported as inconclusive: 21.3 µM [inhibitor, single point]. With N=C(N)SCc1nc2ccccc2c(=O)n1-c1ccccc1Cl the Potency was inconclusive: 26.9 µM [inhibitor, partial curve, poor fit]. With Cc1cccc(NC(=O)CO/N=C/c2ccc3c(c2)OCO3)c1 the Potency was inconclusive: 30.1 µM [inhibitor, partial curve, poor fit]. In the case of COc1cccc(-n2cc(-c3ccc(F)cc3)[nH]c2=S)c1, the Potency is reported as inconclusive: 26.9 µM [inhibitor, single point]. In the case of CN(C)N=Nc1ccc(S(N)(=O)=O)cc1, the “activity change, negative = inhibition” value is reported as inactive: -1.84%.
